Measured values as given in ChEMBL document CHEMBL4888484, “Replenishing the malaria drug discovery pipeline: Screening and hit evaluation of the MMV Hit Generation Library 1 (HGL1) against asexual blood stage Plasmodium falciparum ,using a nano luciferase reporter read-out” (2022).
In all, about 4,800 compounds went through this assay and about 420 (8.8%) showed an effect of 50% or more. The list shows a part of the results.

The compounds below were run on Plasmodium falciparum (assay: Confirmatory screen in NF54 nanoGlo assay, in single point, at 2uM, 72h). Details: timepoint 72 hour.
Type: functional, Erythrocyte
For Cc1nc(-c2ccccc2)cc2nn(CC(=O)NC3CCCCC3)c(=O)n12, the “% Inhibition” value was -13%. For Cc1ccc(NC(=O)CC(C)(C)CC2=Nc3ccccc3S(=O)(=O)N2)cc1F, the “% Inhibition” value was -3%. In the case of CS(=O)(=O)N1CCC(C(=O)Nc2c(C(N)=O)sc3nc(C(F)F)cc(C4CC4)c23)CC1, the “% Inhibition” value is reported as -2%. For O=C(Nc1ccc2c(c1)cc(C(=O)Nc1ccc(C(F)(F)F)cc1)n2Cc1cccc(F)c1)c1ccccc1Cl, the “% Inhibition” value was -13%. In the case of Cc1cc(C(=O)NCC(=O)NC(C)(C)C)no1, the “% Inhibition” value is reported as 7%. With NC(=O)c1nnn2c1C(=O)N[C@H](c1ccc(Cl)cc1)C2 the “% Inhibition” value was -11%. O=S1(=O)CCN(OCc2ccc(Cl)cc2)CC1 was tested, and the “% Inhibition” value was 3%. For O=C(c1cnc2ccc(F)cc2c1N1CCN(c2ccccn2)CC1)N1CCCC1, the “% Inhibition” value was 1%. For CC(=O)c1cccc(NC(=O)[C@@]23CCC(=O)N2c2ccccc2C(=O)N3C)c1, the “% Inhibition” value was 76%. With Cc1ccc([C@@H]2C=C(C(=O)O)Nc3c(C(N)=O)nnn32)cc1 the “% Inhibition” value was -14%. For Cc1cc(C)c2nc(C)cc(Nc3ccc(O)cc3)c2c1, the “% Inhibition” value was 87%. In the case of CC(C)c1nc(C(=O)Nc2ccccc2CN2CCNC2=O)cs1, the “% Inhibition” value is reported as 3%. With CO/C(=N/C(=O)c1cccc(OC)c1)N[C@H]1CCCc2ccccc21 the “% Inhibition” value was -7%. For CCOC(=O)COc1ccc(C)cc1-c1ccno1, the “% Inhibition” value was -5%. In the case of CCOc1ccc(CCN2C(=O)c3c(C(=O)OC)ncn3C[C@@]2(C)C(=O)NC2CCCCCC2)cc1, the “% Inhibition” value is reported as -3%. O=C1CCC(Nc2ccc(Br)cn2)C(C2CC2)N1 (stereo not given) was tested, and the “% Inhibition” value was 1%. CCOC(=O)c1nc(-c2ccc(N(CC)CC)nc2)no1 was tested, and the “% Inhibition” value was 6%. With Cc1nnc2ccc(S(=O)(=O)N(Cc3ccccc3F)c3ccccc3)cn12 the “% Inhibition” value was -16%. For COc1ccc(CC[C@@H]2NCCn3cccc32)cc1, the “% Inhibition” value was -5%. For O=C(O)C1C2C=CC(C2)C1C(=O)Nc1cccc2ncccc12 (stereo not given), the “% Inhibition” value was 5%. With CC(=O)NC1CN(C(=O)Nc2ccc(C(C)C)c(F)c2)C1 the “% Inhibition” value was -17%. In the case of O=C(COc1ccccc1)Nc1ccc2c(c1)C(O)=Nc1cccnc1O2, the “% Inhibition” value is reported as 58%. With CCOC(=O)C(Cc1ccc(OCc2c(F)cccc2Cl)cc1)(NC(C)=O)C(=O)OCC the “% Inhibition” value was 2%. In the case of Nc1cc(C(F)(F)F)c(Br)cc1Br, the “% Inhibition” value is reported as -16%. Cc1ccc(Nc2[nH]nnc2C(=O)N[C@H]2CCc3ccccc32)cc1C was tested, and the “% Inhibition” value was 2%. With O=C(Nc1nc(-c2cccc3ccccc23)cs1)c1c(Cl)cccc1Cl the “% Inhibition” value was -7%. For O=C(NCC(=O)N(C[C@H]1CCCO1)C1(C(=O)NC2CCCCC2)CCCCC1)c1ccccc1, the “% Inhibition” value was 12%. With CC(=O)Nc1ncc(Br)cc1C the “% Inhibition” value was 3%. In the case of CC(C)[C@@H]1CC[C@H](C)C[C@H]1OC(=O)Cn1cc(-c2ccc(Cl)cc2)[n+]2c1CCC2, the “% Inhibition” value is reported as 84%. In the case of COc1ccc(-c2cnn3c(-c4ccccn4)ccnc23)cc1OC, the “% Inhibition” value is reported as -1%. With COC(=O)C(C)CN1CCCC(n2ccc(C(F)(F)F)n2)C1 (stereo not given) the “% Inhibition” value was -5%. In the case of O=C(Nc1ccc2c(c1)c1cc(Br)ccc1n2Cc1ccccc1)c1ccccc1, the “% Inhibition” value is reported as 4%. With CC1CCC(C)(NC(=O)Nc2ccn(C(C)C)n2)CC1 (stereo not given) the “% Inhibition” value was -11%. In the case of Cc1c(-c2nn(-c3ccccc3)c(-c3cnn(C)c3C)c2Cl)cnn1C, the “% Inhibition” value is reported as -4%. For O=C(Cc1c[nH]c2ccccc12)N1CCc2ccccc2C1, the “% Inhibition” value was -8%. With COCc1nncn1C1CN(C(=O)CCc2ccccc2OC)C1 the “% Inhibition” value was -13%. Cc1cc(C(=O)Nc2ccc(Br)c(C)n2)no1 was tested, and the “% Inhibition” value was -12%. In the case of Cc1nn(CC2(O)CCCCC2)c(=O)c(C#N)c1C, the “% Inhibition” value is reported as -3%. In the case of Cc1cc(C)n2c(-c3ccccc3C)nnc2n1, the “% Inhibition” value is reported as 1%. In the case of Cc1[nH]ncc1CCCNCc1cccc(O)c1, the “% Inhibition” value is reported as 0%. With COCCOC(=O)c1cc(C(F)(F)F)cc(C(=O)OCCOC)n1 the “% Inhibition” value was -2%. With CCCc1cnc(NC(=O)c2cnn(C)c2C)s1 the “% Inhibition” value was -8%. In the case of O=C1NC(=O)[C@]2(CCOc3ccc(F)cc32)N1, the “% Inhibition” value is reported as -3%. With CC(C)CCn1c(=O)c2sccc2n(CC(=O)N(C)c2ccccc2)c1=O the “% Inhibition” value was 5%. In the case of CC(C)=CCN1CC[C@]2(CCCO2)CCC1=O, the “% Inhibition” value is reported as 2%. With COC(=O)[C@](Nc1ccc(Oc2ccccc2)cc1)(c1cc(C)c(O)c(C)c1)C(F)(F)F the “% Inhibition” value was 4%. For Cc1ccccc1[C@H]1CCN(c2ccc(NC(=O)c3ccc(F)cc3)c(C(=O)O)c2)C1, the “% Inhibition” value was -11%. For COc1ccc(N2CCN(C(=O)c3ccccc3Cl)[C@@H](C)C2=O)cc1OC, the “% Inhibition” value was -11%. In the case of O=S(=O)(c1ccc2c(c1)OCCO2)N1CCO[C@H](c2ccc(F)cc2)C1, the “% Inhibition” value is reported as -3%. With CN(C)c1ccc2c(c1)CN(C(=O)c1ccccc1S(C)(=O)=O)CC2 the “% Inhibition” value was -14%. In the case of Cc1cnn(CC(=O)N2CCC[C@@H]2CCc2ncc(C)n2CC2CC2)c1, the “% Inhibition” value is reported as -7%. For CCOc1cc(C(=O)Nc2ccc3nc4c(c(Nc5ccc(OC)c(OC)c5)c3c2)CCCC4)cc(OCC)c1OCC, the “% Inhibition” value was 96%. O=C(COc1ccccc1O)NC1CC1c1cccc(Cl)c1 (stereo not given) was tested, and the “% Inhibition” value was 5%. In the case of COc1ccc(C(=O)N2c3ncnn3C(c3ccccc3)CC2c2ccc(C)cc2)cc1OC (stereo not given), the “% Inhibition” value is reported as 78%. For Cc1cc(C(=O)N2CCN(C(=O)C(C)C)[C@@H]3CS(=O)(=O)C[C@@H]32)nc(C)n1, the “% Inhibition” value was -10%. CC1(C)C(=O)NCCN1C(=O)c1cccc2ccccc12 was tested, and the “% Inhibition” value was 5%. OCC#Cc1ncc(C(F)(F)F)cc1Cl was tested, and the “% Inhibition” value was -8%. For CC(C)c1cc(=O)n(Cc2ccccc2Cn2cnc(C(C)C)cc2=O)cn1, the “% Inhibition” value was -3%. O=C(CCc1ncc(-c2ccc(Cl)cc2Cl)o1)NC1(C(=O)O)CCCCC1 was tested, and the “% Inhibition” value was -8%. For Cc1ccc(CN2C(=O)[C@@H]3CCCN3c3ccc(C(F)(F)F)cc32)cc1, the “% Inhibition” value was -17%. For Cc1cccc(-c2nc3nc(C)c(CC(=O)N4CCCCC4)c(C)n3n2)c1, the “% Inhibition” value was 1%. In the case of COc1cc(C)c2[nH]c3c(c(=O)c2c1)CN(CC(=O)Nc1ccc2c(c1)OCO2)CC3, the “% Inhibition” value is reported as 12%. O=C1CCCC1C1COCCN1Cc1ncsc1Br (stereo not given) was tested, and the “% Inhibition” value was 9%. With COc1ccc(CNC(=N)NS(=O)(=O)c2ccc(OC)c(OC)c2)c(OC)c1 the “% Inhibition” value was 2%. O=C(NCc1cc(F)cc(F)c1)c1csc(C(=O)NC2CC2)n1 was tested, and the “% Inhibition” value was -6%.
